Source: PubChem BioAssay AID1745853 (National Center for Advancing Translational Sciences (NCATS), 2022)
The list shows a part of the results. The main result of the screen is listed elsewhere. These columns were measured beside it and carry no call.

Assays:
Assay in all cases: Primary Screen for Target Class Profiling of Small Molecule Inhibitors of Methyltransferases
[1] = biological target: Glycine N-methyltransferase (Homo sapiens) (UniProt Q14749); settings: purified enzyme, MTase-Glo SAH luminescence; measured here: GNMT inhibition; at 40 µM; stronger effect = lower value
In short: (§1)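 Each enzyme was reacted with SAM and its substrate, with compounds tested once at 40 uM; SAH formed was read by MTase-Glo luminescence.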

[2] = biological target: Guanidinoacetate N-methyltransferase (Homo sapiens) (UniProt Q14353); settings: purified enzyme, MTase-Glo SAH luminescence; measured here: GAMT inhibition; at 40 µM; stronger effect = lower value
In short: as §1

[3] = biological target: Histamine N-methyltransferase (Homo sapiens) (UniProt P50135); settings: purified enzyme, MTase-Glo SAH luminescence; measured here: HNMT inhibition; at 40 µM; stronger effect = lower value
In short: as §1

[4] = biological target: Nicotinamide N-methyltransferase (Homo sapiens) (UniProt P40261); settings: purified enzyme, MTase-Glo SAH luminescence; measured here: NNMT inhibition; at 40 µM; stronger effect = lower value
In short: as §1

[5] = biological target: Phenylethanolamine N-methyltransferase (Homo sapiens) (UniProt P11086); settings: purified enzyme, MTase-Glo SAH luminescence; measured here: PNMT inhibition; at 40 µM; stronger effect = lower value
In short: as §1
% is scaled to controls: 0 for no effect and ±100 for the full control effect.

Row | Structure (SMILES) | activity change, negative = inhibition [1] | activity change, negative = inhibition [2] | activity change, negative = inhibition [3] | activity change, negative = inhibition [4] | activity change, negative = inhibition [5]
1 | CN1CCc2[nH]cnc2C12CCN(C(=O)Cc1ccc(F)cc1Cl)CC2 | -4.66% | 0.818% | -5.94% | -2.89% | 1.4%
2 | CN[C@@H]1[C@H](O[C@H]2[C@H](O[C@@H]3[C@@H](O)[C@H](O)[C@@H](N=C(N)N)[C@H](O)[C@H]3N=C(N)N)O[C@@H](C)[C@]2(O)C=O)O[C@@H](CO)[C@H](O)[C@H]1O | 3.1% | -2.1% | 2.38% | -12.4% | -5.54%
3 | CC(=O)OC12CC(C)C(OC(=O)c3ccccc3)C1/C=C(/C)C(OC(=O)c1ccccc1)CC(=O)C(C)(C)/C=C/C(C)C2=O (centres undefined) | 0.934% | 2.66% | 12% | -17% | -3.03%
4 | COc1ccc(-c2nnc(-c3ccc(OC)c(S(=O)(=O)N4CCCCCC4)c3)o2)cc1OC | -4.55% | 1.84% | 12% | 2.16% | 7.27%
5 | C=C1C(=O)O[C@@H]2C[C@H](C)[C@@]3(O)C=C(C(C)=O)[C@]4(CC3C[C@H]12)C(=O)O[C@H]1C[C@@H](C)C(CCC(C)=O)=CC[C@H]14 (some centres undefined) | -1.38% | 4.7% | 10.3% | -9.06% | 5.42%
6 | COc1cccc(CNC(=O)Cn2nc3ccc(SCc4ccc(Cl)cc4)nn3c2=O)c1 | -14.6% | 0% | 7.79% | 3.02% | 5.32%
7 | O=c1[nH]c2ccc(S(=O)(=O)Nc3ccc(Br)cc3F)cc2[nH]1 | 6.66% | 0% | 10.6% | 4.81% | -16.8%
8 | COC(=O)Cn1c(=O)oc2cc(S(=O)(=O)NCCc3sccc3C)ccc21 | 0.073% | 3.04% | 6.24% | -2.07% | 1.47%
9 | CC(C)Cn1c(=O)c2ccccc2n2c(SCC(=O)NCc3ccc(Cl)cc3)nnc12 | 6.54% | 0.526% | 12.5% | 4.77% | 7.98%
10 | CC(C)NC(=O)c1ccc2c(=O)nc3c(-c4cccc(F)c4)n[nH]n3c2c1 | 3.04% | 0% | 1.1% | 5.7% | -0.72%
11 | CCc1ccc(NC(=O)CSc2nnc3n(CCCOC(C)C)c(=O)c4ccccc4n23)cc1 | -7.43% | 3.45% | 0.826% | -1.69% | 0.46%
12 | CCCNC(=O)N1CCCCCC1CN1CCCC1 (centres undefined) | -4.19% | -2.29% | -1.2% | -4.94% | -1.59%
13 | CC(CCc1ccccc1)NC(=O)CCn1ccc2cc(S(=O)(=O)N3CCCCC3)ccc21 (centres undefined) | 6.13% | 0.65% | 7.02% | -0.004% | 3.19%
14 | Cc1nc(C2CC23CCN(S(=O)(=O)c2cccc(F)c2)CC3)no1 (centres undefined) | -5.18% | -8.24% | -4.49% | -9.9% | -10.2%
15 | CC(O)(CC(=O)O)CC(=O)OCc1ccc(O[C@@H]2O[C@H](CO)[C@@H](O)[C@H](O)[C@H]2O)cc1 (some centres undefined) | 4.59% | 6.5% | 8.94% | -4.08% | 6.03%
16 | CCc1ccc(NC(=O)CSc2nnc3[nH]c(=O)c(C(C)(C)C)nn23)cc1 | -11% | -1.79% | -2.26% | -10.5% | -6.65%
17 | COc1ccc2c(c1)c(NC(C)=O)c1n2CC(C)(C(=O)NC2CCCC2)N(C2CCCCC2)C1=O (centres undefined) | 3.88% | 0% | 6.93% | 7.98% | 1.03%
18 | C/C=C(\C)C(=O)OC1C(C)C2(O)C3C=C(C)C(=O)C3CC(CO)=CC2C2C(C)(C)C12OC(C)=O (centres undefined) | -4.43% | -15.2% | 5.35% | -29.4% | -12.6%
19 | COCC(c1ccc(C(F)(F)F)cc1)N1CCN(C2(C)CCN(C(=O)c3c(C)ncnc3C)CC2)CC1C (centres undefined) | -0.79% | – | 5.71% | – | –

Row | Structure (SMILES) | activity change, negative = inhibition [1] | activity change, negative = inhibition [2] | activity change, negative = inhibition [3] | activity change, negative = inhibition [4] | activity change, negative = inhibition [5]
20 | O=C(CCc1nnc2n(CCc3ccccc3)c(=O)c3ccccc3n12)N1CCN(c2ccccn2)CC1 | -24.6% | 2.49% | -8.63% | -19.5% | -4.07%
21 | CCOc1ccc(C(=O)Cn2nc3n(CCC(C)C)c(=O)c4ccccc4n3c2=O)cc1 | 6.22% | 1.77% | 10.9% | -4.43% | 4.47%
22 | CC(C)=CCCC1(C)C=Cc2c(c(C)cc3c2[nH]c2ccccc23)O1 (centres undefined) | -1.02% | -4.7% | -8.35% | -17.5% | 0.808%
23 | C=CCNC(=O)C(NC(=O)c1ccc(OC)cc1)C1CCN(C(=O)CCc2ccccc2)CC1 (centres undefined) | -0.374% | 2.89% | 2.99% | -3.74% | 9.31%
24 | COc1ccc(-c2nnc(-c3ccc(Cl)c(S(=O)(=O)N4CCCCCC4)c3)o2)cc1 | 13.1% | 2.5% | 11.4% | 7.59% | 8.78%
25 | CCC(C)NC(=O)c1cc2n(n1)CC(C)(C(=O)NC1CCCCCC1)N(C)C2=O (centres undefined) | -5.5% | -2.5% | -0.248% | -1.86% | -0.217%
26 | COc1cccc(N2CCN(C(=O)C3CCCN(c4cnc5nccnc5c4)C3)CC2)c1 (centres undefined) | -6.74% | -6.8% | -8.36% | -11% | -8.25%
27 | CCc1cccc(N2C(=O)c3ccccc3CC2(C)C(=O)NCc2ccccc2C)c1 (centres undefined) | -1.94% | 0% | -6.49% | -7.52% | -0.514%
28 | CC(C)n1c(=O)c2ccc(C(=O)NC3CCCC3)cc2n2c(=O)n(CC(=O)NCc3ccccc3)nc12 | -3.27% | 1.26% | -4.02% | -17% | -3.9%
29 | CCc1ccccc1NC(=O)CSc1nnc2n(CCc3ccccc3)c(=O)c3ccccc3n12 | 1.03% | 0.001% | 9.73% | -3.11% | 4.06%
30 | Cc1ccc(NC(=O)Cn2nc3n(CCC(C)C)c(=O)c4ccccc4n3c2=O)c(Cl)c1 | 7.02% | 0.47% | 10.5% | 8.93% | 5.4%
31 | CCCn1c(=O)c2ccc(C(=O)NC3CCCC3)cc2n2c(=O)n(CC(=O)c3cccc(Cl)c3)nc12 | 0.596% | 2.81% | -1.93% | -5.43% | -0.577%
32 | Cc1cc2c(cc3n2CC(C)(C(=O)NC2CCCCCCC2)N(CCCN2CCCCCC2)C3=O)o1 (centres undefined) | -0.587% | 4.38% | -9.47% | 4.04% | 2.55%
33 | CC1CCC(NC(=O)C2(C)Cn3c(nc4ccccc43)C(=O)N2Cc2ccc(OC(C)C)cc2)CC1 (centres undefined) | -9.58% | -0.655% | -5.57% | -23.2% | -4.4%
34 | CC1CCN(CCCNC(=O)CCc2nnc3n(Cc4ccc(Cl)cc4)c(=O)c4ccccc4n23)CC1 | -11.2% | 4.97% | -66.1% | 2.33% | -6.11%
35 | Cc1ccc(Cn2c(=O)c3ccccc3n3c(=O)n(Cc4ccc(Cl)cc4)nc23)cc1 | 3.98% | 0% | 7.06% | 0.753% | 0.13%
36 | COCC(=O)N(C1CCOCC1)C1CCN(C(=O)Cc2ccc(Cl)cc2)CC1 | -0.662% | 2.04% | 1.55% | 1.01% | -0.722%
37 | O=C(N[C@H]1CCN2C(=O)[C@@H](Cc3c[nH]c4ccccc34)NC(=O)[C@H]12)c1cnccn1 | -3.38% | -4.24% | 2.01% | -10.6% | 8.36%
38 | CC(C)(C)NC(=O)N1CCC(c2nnc3n2C(C(=O)NCC2CCCCC2)CC3)CC1 (centres undefined) | -3.93% | -3.92% | -2.19% | -9.33% | -5.21%

Row | Structure (SMILES) | activity change, negative = inhibition [1] | activity change, negative = inhibition [2] | activity change, negative = inhibition [3] | activity change, negative = inhibition [4] | activity change, negative = inhibition [5]
39 | CC1CCC(NC(=O)C2(C)Cn3c(cc4occc43)C(=O)N2C2CCCCCC2)CC1 (centres undefined) | -3.84% | 6.93% | 0.037% | -4.76% | -1.62%
40 | Cc1cc(CN2CCC3(CC2)CCN(Cc2cscn2)CC3CO)on1 (centres undefined) | -0.231% | 2.11% | 2.06% | -2.79% | 0.206%
41 | CC1=CCC2C(C)(C)CCC[C@]2(C)[C@@]12CC[C@](C)(CC(=O)O)O2 (some centres undefined) | 0% | -4.71% | 6.04% | -24.5% | -17.5%
42 | OCc1ccc(-c2nn(Cc3ccccc3)c3ccccc23)o1 | -45.8% | 10.7% | 1.57% | -7.71% | 3.42%
43 | CCOC(=O)CNC(=O)N1Cc2c(sc3c2CCCC3)-n2cccc2C1C(C)C (centres undefined) | -6.85% | -3.79% | -3.27% | -15.4% | -5.29%
44 | CCc1cc2c(cc3n2CC(C)(C(=O)NC2CCCCCC2)N(CCOC)C3=O)s1 (centres undefined) | 0.814% | 4.33% | 0.018% | -8.17% | -1.32%
45 | Cc1ccc(CNC(=O)C2(C)Cn3nc(C(=O)NCc4ccc(C)o4)cc3C(=O)N2C)cc1 (centres undefined) | 3.86% | 0% | 4.01% | 3.66% | 2.54%
46 | O=S(=O)(NC1CCNCC1)c1cc(S(=O)(=O)c2ccccc2)ccc1C(F)(F)F | 7.93% | 8.39% | 10.6% | -7.14% | 2.97%
47 | Cc1ccc(C(=O)C(C)n2nc3n(C(C)C)c(=O)c4ccc(C(=O)NC(C)C)cc4n3c2=O)cc1C (centres undefined) | 0.32% | 3.19% | 5.42% | -10.9% | -1.53%
48 | CC1(C(=O)NC2CCCCC2)Cn2c(ccc2-c2ccco2)C(=O)N1Cc1ccco1 (centres undefined) | -18.4% | -8.9% | 6.03% | -6.63% | -6.9%
49 | Cn1c(SCC(=O)N2CCC[C@H]2C(=O)Nc2ccccc2-c2ccccc2)nc2ccccc21 | -3.84% | -3.25% | 5.7% | -23.5% | -6.06%
50 | CC(=O)OC1C(=O)C2(C)C(O)CC3OCC3(OC(C)=O)C2C(OC(=O)c2ccccc2)C2(O)CC(OC(=O)C(O)C(NC(=O)c3ccccc3)c3ccccc3)C(C)=C1C2(C)C (centres undefined) | 1.13% | – | 3.17% | – | –
51 | CC1CCCN1C(=O)c1cc(-c2ccc(C(F)(F)F)cc2)nc2c1cnn2C (centres undefined) | -8.08% | -12.1% | -4.29% | -26.8% | -12.1%
52 | CCc1ccccc1NC(=O)CSc1nnc2n(Cc3ccc(F)cc3)c(=O)c3ccccc3n12 | 3.69% | 0.322% | 6.36% | -1.43% | 3.14%
53 | CC(C)(C)c1nc(C(=O)NCc2cccnc2)n2ccncc12 | -11.4% | -14.1% | -7.49% | -19.4% | -12.4%
54 | Cc1ccc(S(=O)(=O)c2nnn3c2nc(NC(C)c2ccccc2)c2ccccc23)cc1 (centres undefined) | -3.34% | 4.38% | -0.098% | 0.225% | -5.16%
55 | CN(C(=O)Cn1nc2n(C)c(=O)c3ccc(C(=O)NC4CCCCC4)cc3n2c1=O)c1ccc(F)cc1 | 5.41% | 0.837% | 4.43% | 3.61% | 3.31%
56 | CC1CCC(NC(=O)C2(C)Cn3c(cc4sccc43)C(=O)N2Cc2ccco2)CC1 (centres undefined) | 0.458% | 0% | -0.56% | -7.19% | -1.79%
57 | CN1C(=O)c2cc(C(=O)NCc3cccc(Br)c3)nn2CC1(C)C(=O)NC1CCCC1 (centres undefined) | 0.258% | 3.31% | -1.7% | -0.564% | -2.57%
